Reference: patent US20250333445A1 (ONCOPEPTIDES INNOVATION 1, published 2025)
Numbering of substitutions follows the chain as printed.

B1: H_aBCMA-1-E6_15 aa_aCD16-A10(2a-C09)_His6c_OH (designed binder)
chain: VDNKFNKENQFADEEIAALPNLNFYQKWAFIRKLMDDPSQSANLLAEAKKLNDAQAPKGGGSGGGGSGGGGSGVDNKFNKEVQIAQREIRSLPNLNHHQVFAFIKKLLDDPSQSANLLAEAKKLNDAQAPK
B2: H_aBCMA-1-E6_15 aa_aCD16-A10(2a-G03)_His6c_OH (designed binder)
chain: B1 chain with V82T, I84V, R87K, S91T, V100I, I104L, K105N, L108I
B3: 1-E6-(GGGSG)3-A10*-YY-His6 with A10* = SEQ ID 13 (designed binder)
chain: VDNKFNKENQFADEEIAALPNLNFYQKWAFIRKLMDDPSQSANLLAEAKKLNDAQAPKGGGSGGGGSGGGGSGVDNKFNKELQTAQLEIRTLPNLNHHQIFAFIAKLRDDPSQSANLLAEAKKLNDAQAPKYYHHHHHH
B4: 1-E6-(GGGSG)3-A10*-YY-His6 with A10* = SEQ ID 26 (designed binder)
chain: B3 chain with L82V, T84I, L87K, T91E, I100K, A105K, K106S, R108L
B5: 1-E6-(GGGSG)3-A10*-YY-His6 with A10* = SEQ ID 27 (designed binder)
chain: B3 chain with T84H, L87R, T91Q, I100V, K106S, R108I
B6: 1-E6-(GGGSG)3-A10*-YY-His6 with A10* = SEQ ID 20 (designed binder)
chain: B3 chain with L82R, T84Y, Q86V, L87N, T91Q, A105K, K106S, R108L
B7: 1-E6-(GGGSG)3-A10*-YY-His6 with A10* = SEQ ID 28 (designed binder)
chain: B3 chain with L82I, T84D, L87K, I100K, A105Q, K106S, R108I
B8: 1-E6-(GGGSG)3-A10*-YY-His6 with A10* = SEQ ID 22 (designed binder)
chain: B3 chain with L82I, T84S, L87V, T91A, I100K, A105N, K106S, R108L
B9: 1-E6-(GGGSG)3-A10*-YY-His6 with A10* = SEQ ID 34 (designed binder)
chain: B3 chain with L82Y, T84I, L87W, T91R, I100K, K106S, R108L
B10: 1-E6-(GGGSG)3-A10*-YY-His6 with A10* = SEQ ID 35 (designed binder)
chain: B3 chain with T84N, L87R, T91A, I100Q, A105H, R108I
B11: 1-E6-(GGGSG)3-A10*-YY-His6 with A10* = SEQ ID 14 (designed binder)
chain: B3 chain with L82F, T84L, L87R, T91E, I100Q, A105H, R108L
B12: 1-E6-(GGGSG)3-A10*-YY-His6 with A10* = SEQ ID 24 (designed binder)
chain: B3 chain with L82V, T84F, L87R, T91K, I100Q, A105H, K106S, R108L
B13: 1-E6-(GGGSG)3-A10*-YY-His6 with A10* = SEQ ID 37 (designed binder)
chain: B3 chain with L82T, T84I, Q86A, L87Q, T91H, I100R, A105K, K106S, R108L
B14: 1-E6-(GGGSG)3-A10*-YY-His6 with A10* = SEQ ID 31 (designed binder)
chain: B3 chain with L82R, T84Q, Q86A, L87Y, T91H, I100V, A105K, R108L
B15: 1-E6-(GGGSG)3-A10*-YY-His6 with A10* = SEQ ID 36 (designed binder)
chain: B3 chain with L82D, T84R, L87R, T91A, I100K, A105N, R108L
B16: 1-E6-(GGGSG)3-A10*-YY-His6 with A10* = SEQ ID 32 (designed binder)
chain: B3 chain with L82K, T84A, L87R, T91A, A105H, R108L
B17: 1-E6-(GGGSG)3-A10*-YY-His6 with A10* = SEQ ID 30 (designed binder)
chain: B3 chain with L82K, T84R, L87W, T91Q, I100K, A105Q, K106S, R108I
B18: 1-E6-(GGGSG)3-A10*-YY-His6 with A10* = SEQ ID 48 (designed binder)
chain: B3 chain with L82Q, T84Y, L87I, T91Q, I100K, A105K, K106S, R108I
B19: 1-E6-(GGGSG)3-A10*-YY-His6 with A10* = SEQ ID 60 (designed binder)
chain: B3 chain with L82V, T84H, L87K, T91A, I100A, R108L
B20: 1-E6-(GGGSG)3-A10*-YY-His6 with A10* = SEQ ID 56 (designed binder)
chain: B3 chain with L82H, T84V, L87R, T91A, I100K, A105Q, K106S, R108I
B21: H_aBCMA-1-E6_15 aa_aCD16-A10(2b-E03)_His6c_OH (designed binder)
chain: B1 chain with V82L, I84S, S91Q, V100K, K105N, K106S
B22: H_aBCMA-1-E6_15 aa_aCD16-A10(2a-F09)_His6c_OH (designed binder)
chain: B3 chain with L82V, T84Y, L87R, T91N, I100A, A105K, K106S, R108I
B23: 1-E6-(GGGSG)3-A10*-YY-His6 with A10* = SEQ ID 23 (designed binder)
chain: B3 chain with T84H, L87I, T91K, I100K, A105N, R108H
B24: H_aBCMA-1-E6_15 aa_aCD16-A10(2a-H04)_His6c_OH (designed binder)
chain: B3 chain with L82V, T84W, L87K, T91S, I100V, A105R, K106S, R108L
B25: H_aBCMA-1-E6_15 aa_aCD16-A10(34a-F03)_His6c_OH (designed binder)
chain: B1 chain with R87L, S91R, V100K, F101Y, K106S, L108A
B26: 1-E6-(GGGSG)3-A10*-YY-His6 with A10* = SEQ ID 55 (designed binder)
chain: B3 chain with T84K, L87Q, T91H, I100T, A105K, R108L

Target: T1, hCD16a F158 (Cat. no. CDA-H5220, Acro Biosystems) (human, UniProt P08637 17-208)
T1 construct: also called human CD16a F158; hCD16a F158 allotype
Test: SPR, 1-E6-(GGGSG)3-A10*-YY-His6 fusion over immobilised receptor [c]

Binder	Kd	koff	kon
B1	30 nM	–	–
B2	95 nM	0.0057 s⁻¹	60000 M⁻¹ s⁻¹
B3	282 nM	–	–
B4	283 nM	2.7 s⁻¹	9.4e+06 M⁻¹ s⁻¹
B5	532 nM	18 s⁻¹	3.4e+07 M⁻¹ s⁻¹
B6	605 nM	0.14 s⁻¹	240000 M⁻¹ s⁻¹
B7	124 nM	0.019 s⁻¹	160000 M⁻¹ s⁻¹
B8	283 nM	2.7 s⁻¹	9.4e+06 M⁻¹ s⁻¹
B9	260 nM	0.01 s⁻¹	38000 M⁻¹ s⁻¹
B10	153 nM	16 s⁻¹	1.1e+08 M⁻¹ s⁻¹
B11	297 nM	23 s⁻¹	7.9e+07 M⁻¹ s⁻¹
B12	124 nM	0.019 s⁻¹	160000 M⁻¹ s⁻¹
B13	458 nM	–	–
B14	182 nM	–	–
B15	179 nM	0.11 s⁻¹	620000 M⁻¹ s⁻¹

Target: T2, hCD16a V158 (Cat. no. CD8-H52H4, Acro Biosystems) (human, UniProt P08637 17-208)
T2 construct: also called human CD16a V158; hCD16a V158 allotype
Test: as above

Binder	Kd
B1	31 nM
B2	98 nM
B3	256 nM
B4	127 nM
B5	173 nM
B6	502 nM
B7	148 nM
B8	256 nM
B9	228 nM
B10	133 nM
B11	258 nM
B12	114 nM
B16	129 nM
B13	370 nM
B15	163 nM
B17	79 nM

Target: T1, hCD16a F158 (Cat. no. CDA-H5220, Acro …)
Test: SPR, 1-E6-(GGGSG)3-A10*-YY-His6 fusion over immobilised receptor [f]

Binder	Kd
B18	227 nM
B19	262 nM
B20	186 nM

Target: T3, CD16b NA1 (human, UniProt O75015)
T3 construct: also called CD16b (NA1 form)
Test: SPR, 1-E6-(GGGSG)3-A10*-YY-His6 fusion; CD16b set-up not described [c]

Binder	Kd
B1	9 nM
B2	26 nM
B21	12 nM
B3	195 nM
B4	107 nM
B5	66 nM
B6	369 nM
B22	51 nM
B23	209 nM
B7	48 nM
B8	143 nM
B9	760 nM
B10	71 nM
B11	114 nM
B12	41 nM
B16	59 nM
B13	427 nM
B24	24 nM
B14	160 nM
B15	37 nM
B17	102 nM

Target: T4, CD16b NA2 (human, UniProt O75015)
T4 construct: also called CD16b (NA2 form)
Test: as above

Binder	Kd
B1	59 nM
B2	175 nM
B21	85 nM
B3	692 nM
B4	163 nM
B5	274 nM
B6	676 nM
B22	286 nM
B23	1140 nM
B7	238 nM
B8	362 nM
B9	561 nM
B10	141 nM
B11	374 nM
B12	169 nM
B16	193 nM
B13	454 nM
B24	96 nM
B14	270 nM
B15	253 nM
B17	176 nM

Target: T3, CD16b NA1
Test: SPR, 1-E6-(GGGSG)3-A10*-YY-His6 fusion; CD16b set-up not described [f]

Binder	Kd
B25	39 nM
B18	96 nM
B19	91 nM
B20	45 nM
B26	39 nM

Target: T4, CD16b NA2
Test: as above

Binder	Kd
B25	224 nM
B18	360 nM
B19	296 nM
B20	257 nM
B26	142 nM

Target: T1, hCD16a F158 (Cat. no. CDA-H5220, Acro …)
Test: SPR (Biacore 8K), serial dilutions over immobilised hCD16a F158, 1:1 Langmuir model

Binder	Kd	koff	kon
B1	30 nM	–	–
B2	95 nM	0.0057 s⁻¹	60000 M⁻¹ s⁻¹
